Data taken from the supplement of paper PMC10126150.
Values marked as one replicate rest on one cluster of the flow cell; about a third of the high ones do not repeat.

Tested on: ATP
Test: switch fluorescence ratio, 500 uM ATP over buffer (Cy3 cluster intensity, sum of 5 cycles each) (fold (ratio)); higher = stronger signal-on switching upon ATP binding; sequences stand for … in TCGTCGGCAGCGTCAGATGTGTATAAGAGACAGTTTTTTTTTTTTTTTTTTTTTTTTT…TC
Conditions: aptamer strand: ATP DNA aptamer (quencher-CACCTGGGGGAGTATTGCGGAGGAAGG + anchor), 100 nM annealed; ATP concentration: 500 uM; one replicate
In short: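 Clusters with intensities outside 100-1000 RFU were excluded. The remaining Cy3-labelled switching-strand clusters on a modified Illumina MiSeq flow-cell had been annealed to 100 nM quencher-labelled ATP aptamer and imaged in selection buffer, then after 15 min with 500 uM ATP at 22 °C, for five cycles separated by NaOH stripping and re-annealing. The fluorescence ratio, averaged per switch-domain sequence, is each cluster's summed target-cycle Cy3 intensity over its summed buffer-cycle Cy3 intensity.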
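Also: ATP exposure 15 min at 22 °C before imaging.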

Sequence	switch fluorescence ratio
TAGGATGCCT	1.07
AGTTAAAAAG	0.967
CGAATGTATT	0.994
ACCGTTCTTC	1.04
GCGGGCGCTA	0.968
CCAGAGGCGC	1.04
ACATCACCTC	1.26
AACCGGGATT	1.06
GAATTACCTG	1
ATGGATGAGT	1.03
GGACCAGTGA	1.05
AAGGATGGCA	1.01
CGAACCGCGG	0.977
CCGGGCTACG	1.08
CGTCGGCTCT	1.01
TCGTGCGAAT	1.03
ATCAAAGGTC	0.999
GGCTCCAC	1.07
GACTTTAGAG	0.97
GTGATGTGGG	0.99
TGTGCTCAGC	0.992
TGTGATCTGG	1.05
ATGTTAGAAT	1.04
GTAGGATGCG	0.996
ATCTACGCAC	2.26
AAGGAATTAG	0.982
GAGGTGGGAA	1.05
TTACACGACC	1.38
TTAGGTGTGA	0.988
CACTGTGTAC	1.26
